According to the supplement of paper PMC8728848:
The other results are listed elsewhere or left out.

How the values were obtained:
Experiment in all cases: glycan array binding signal (z-score within array); higher = stronger binding
Details in all cases: glycan notation: IUPAC condensed, linker removed
Fuc(a1-2)Gal = target: Fuc(a1-2)Gal
In short: (§1)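 Arrays were curated from the Consortium for Functional Glycomics database, 3228 in total, and kept only where the protein sequence was available. Binding is expressed as a within-array Z-score. This score was averaged across arrays of the same protein sequence at different concentrations or buffers and across linkers, and negative values can be read as non-binding.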

Fuc(a1-2)Gal(b1-3)GalNAc = target: Fuc(a1-2)Gal(b1-3)GalNAc
In short: as §1

[1] = target: Fuc(a1-2)Gal(b1-3)GalNAc(a1-3)[Fuc(a1-2)]Gal(b1-4)Glc
In short: as §1

[2] = target: Fuc(a1-2)Gal(b1-3)GalNAc(a1-3)[Fuc(a1-2)]Gal(b1-4)GlcNAc
In short: as §1

[3] = target: Fuc(a1-2)Gal(b1-3)GalNAc(b1-3)Gal
In short: as §1

[4] = target: Fuc(a1-2)Gal(b1-3)GalNAc(b1-3)Gal(a1-4)Gal(b1-4)Glc
In short: as §1

[5] = target: Fuc(a1-2)Gal(b1-3)GalNAc(b1-4)[Neu5Ac(a2-3)]Gal(b1-4)Glc
In short: as §1

Fuc(a1-2)Gal(b1-3)GlcNAc = target: Fuc(a1-2)Gal(b1-3)GlcNAc
In short: as §1

[6] = target: Fuc(a1-2)Gal(b1-3)GlcNAc(b1-2)Man(a1-3)[Fuc(a1-2)Gal(b1-3)GlcNAc(b1-2)Man(a1-6)]Man(b1-4)GlcNAc(b1-4)GlcNAc
In short: as §1

[7] = target: Fuc(a1-2)Gal(b1-3)GlcNAc(b1-2)Man(a1-3)[Fuc(a1-2)Gal(b1-3)GlcNAc(b1-2)Man(a1-6)]Man(b1-4)GlcNAc(b1-4)[Fuc(a1-6)]GlcNAc
In short: as §1

[8] = target: Fuc(a1-2)Gal(b1-3)GlcNAc(b1-3)Gal(b1-4)Glc
In short: as §1

[9] = target: Fuc(a1-2)Gal(b1-3)GlcNAc(b1-3)GalNAc
In short: as §1

[10] = target: Fuc(a1-2)Gal(b1-3)GlcNAc(b1-3)[Fuc(a1-2)Gal(b1-3)GlcNAc(b1-6)]GalNAc
In short: as §1

[11] = target: Fuc(a1-2)Gal(b1-3)GlcNAc(b1-3)[Gal(b1-4)GlcNAc(b1-6)]Gal(b1-4)Glc
In short: as §1

[12] = target: Fuc(a1-2)Gal(b1-3)GlcNAc(b1-3)[Neu5Ac(a2-6)Gal(b1-4)GlcNAc(b1-6)]Gal(b1-4)Glc
In short: as §1

[13] = target: Fuc(a1-2)Gal(b1-3)GlcNAc6S
In short: as §1

[14] = target: Fuc(a1-2)Gal(b1-3)[Fuc(a1-4)]GlcNAc
In short: as §1

[15] = target: Fuc(a1-2)Gal(b1-3)[Fuc(a1-4)]GlcNAc(b1-2)Man(a1-3)[Fuc(a1-2)Gal(b1-3)[Fuc(a1-4)]GlcNAc(b1-2)Man(a1-3)]Man(b1-4)GlcNAc(b1-4)GlcNAc
In short: as §1

[16] = target: Fuc(a1-2)Gal(b1-3)[Fuc(a1-4)]GlcNAc(b1-2)Man(a1-3)[Fuc(a1-2)Gal(b1-3)[Fuc(a1-4)]GlcNAc(b1-2)Man(a1-6)]Man(b1-4)GlcNAc(b1-4)[Fuc(a1-6)]GlcNAc(b1-4)[Fuc(a1-6)]GlcNAc
In short: as §1

[17] = target: Fuc(a1-2)Gal(b1-3)[Fuc(a1-4)]GlcNAc(b1-3)[Fuc(a1-3)[Gal(b1-4)]GlcNAc(b1-6)]Gal(b1-4)Glc
In short: as §1

[18] = target: Fuc(a1-2)Gal(b1-3)[Fuc(a1-4)]GlcNAc(b1-3)[Gal(b1-4)GlcNAc(b1-6)]Gal(b1-4)Glc
In short: as §1

Fuc(a1-2)Gal(b1-4)Glc = target: Fuc(a1-2)Gal(b1-4)Glc
In short: as §1

Fuc(a1-2)Gal(b1-4)Glc6S = target: Fuc(a1-2)Gal(b1-4)Glc6S
In short: as §1

Fuc(a1-2)Gal(b1-4)GlcNAc = target: Fuc(a1-2)Gal(b1-4)GlcNAc
In short: as §1

[19] = target: Fuc(a1-2)Gal(b1-4)GlcNAc(b1-2)Man
In short: as §1

[20] = target: Fuc(a1-2)Gal(b1-4)GlcNAc(b1-2)Man(a1-3)[Fuc(a1-2)Gal(b1-4)GlcNAc(b1-2)Man(a1-6)]Man(b1-4)GlcNAc(b1-4)GlcNAc
In short: as §1

[21] = target: Fuc(a1-2)Gal(b1-4)GlcNAc(b1-2)Man(a1-3)[Fuc(a1-2)Gal(b1-4)GlcNAc(b1-2)Man(a1-6)]Man(b1-4)GlcNAc(b1-4)[Fuc(a1-6)]GlcNAc
In short: as §1

[22] = target: Fuc(a1-2)Gal(b1-4)GlcNAc(b1-2)[Fuc(a1-2)Gal(b1-4)GlcNAc(b1-4)]Man(a1-3)[Fuc(a1-2)Gal(b1-4)GlcNAc(b1-2)Man(a1-6)]Man(b1-4)GlcNAc(b1-4)GlcNAc
In short: as §1

[23] = target: Fuc(a1-2)Gal(b1-4)GlcNAc(b1-3)Gal(b1-4)GlcNAc
In short: as §1

[24] = target: Fuc(a1-2)Gal(b1-4)GlcNAc(b1-3)Gal(b1-4)GlcNAc(b1-2)Man(a1-3)[Fuc(a1-2)Gal(b1-4)GlcNAc(b1-3)Gal(b1-4)GlcNAc(b1-2)Man(a1-6)]Man(b1-4)GlcNAc(b1-4)GlcNAc
In short: as §1

[25] = target: Fuc(a1-2)Gal(b1-4)GlcNAc(b1-3)Gal(b1-4)GlcNAc(b1-3)Gal(b1-4)GlcNAc
In short: as §1

[26] = target: Fuc(a1-2)Gal(b1-4)GlcNAc(b1-3)GalNAc
In short: as §1

[27] = target: Fuc(a1-2)Gal(b1-4)GlcNAc(b1-3)[Fuc(a1-2)Gal(b1-4)GlcNAc(b1-6)]GalNAc
In short: as §1

[28] = target: Fuc(a1-2)Gal(b1-4)GlcNAc(b1-3)[Fuc(a1-3)[Gal(b1-4)]GlcNAc(b1-6)]Gal(b1-4)Glc
In short: as §1

[29] = target: Fuc(a1-2)Gal(b1-4)GlcNAc(b1-6)GalNAc
In short: as §1

[30] = target: Fuc(a1-2)Gal(b1-4)GlcNAc6S
In short: as §1

[31] = target: Fuc(a1-2)Gal(b1-4)[Fuc(a1-3)]GlcNAc
In short: as §1

[32] = target: Fuc(a1-2)Gal(b1-4)[Fuc(a1-3)]GlcNAc(b1-2)Man(a1-3)[Fuc(a1-2)Gal(b1-4)[Fuc(a1-3)]GlcNAc(b1-2)Man(a1-6)]Man(b1-4)GlcNAc(b1-4)[Fuc(a1-6)]GlcNAc
In short: as §1

[33] = target: Fuc(a1-2)Gal(b1-4)[Fuc(a1-3)]GlcNAc(b1-2)[Fuc(a1-2)Gal(b1-4)[Fuc(a1-3)]GlcNAc(b1-4)]Man(a1-3)[Fuc(a1-2)Gal(b1-4)[Fuc(a1-3)]GlcNAc(b1-2)Man(a1-6)]Man(b1-4)GlcNAc(b1-4)GlcNAc
In short: as §1

[34] = target: Fuc(a1-2)Gal(b1-4)[Fuc(a1-3)]GlcNAc(b1-3)Gal(b1-4)[Fuc(a1-3)]GlcNAc
In short: as §1

[35] = target: Fuc(a1-2)Gal(b1-4)[Fuc(a1-3)]GlcNAc(b1-3)Gal(b1-4)[Fuc(a1-3)]GlcNAc(b1-3)Gal(b1-4)[Fuc(a1-3)]GlcNAc
In short: as §1

[36] = target: Fuc(a1-2)Gal(b1-4)[Fuc(a1-3)]GlcNAc(b1-3)GalNAc
In short: as §1

[37] = target: Fuc(a1-2)Gal(b1-4)[Fuc(a1-3)]GlcNAc(b1-3)[Neu5Ac(a2-6)Gal(b1-4)GlcNAc(b1-6)]Gal(b1-4)Glc
In short: as §1

[38] = target: Fuc(a1-2)Gal3S(b1-4)GlcNAc
In short: as §1

[39] = target: Fuc(a1-2)Gal6S(b1-3)GlcNAc
In short: as §1

B1: SP8524D-bot-399-27-399 (Bacteroides ovatus) (protein)
chain: DAKYDTLDTHAYIEEALSSTSQKVTVQATGESFTTLNVHLSNLSSTDNHYKLVTDQSVLDTYNHINGTGYIMLPKDYYTLPETITVKAGQYAADALSIALKAFSQEMMKSGESYALPVKLVLQDGSISPMENTGTFVILAESIIEFSAPMFVGAPSLKANKFTESPETYSQYTIEVRFQVANTADRDRAVFKNGGDDANFILLRFEDPQSDNENYKAHSLVQIVGRNRLYLNPSNSFKPNEWQHLALVCDGSNYRLYINGVDSGVLSIPTGATTFSDVNWFCLGDDSYSRWGNCKILMSEARIWSVVRSASQIQNNMTQVSPKSVGLEAYWRFNEGQGNVFEDATGKGHTLTTSATPTWIDGILSTDKSTEWK
glycan array binding signal (z-score) (Fuc(a1-2)Gal): -0.281 | glycan array binding signal (z-score) (Fuc(a1-2)Gal(b1-3)GalNAc): -0.161 | glycan array binding signal (z-score) [1]: 0.286 | glycan array binding signal (z-score) [2]: -0.344 | glycan array binding signal (z-score) [3]: -0.229 | glycan array binding signal (z-score) [4]: -0.154 | glycan array binding signal (z-score) [5]: -0.061 | glycan array binding signal (z-score) (Fuc(a1-2)Gal(b1-3)GlcNAc): 0.107 | glycan array binding signal (z-score) [6]: -0.113 | glycan array binding signal (z-score) [7]: -0.42 | glycan array binding signal (z-score) [8]: -0.093 | glycan array binding signal (z-score) [9]: -0.261 | glycan array binding signal (z-score) [10]: -0.116 | glycan array binding signal (z-score) [11]: -0.119 | glycan array binding signal (z-score) [12]: -0.348 | glycan array binding signal (z-score) [13]: 0.465 | glycan array binding signal (z-score) [14]: -0.057 | glycan array binding signal (z-score) [15]: -0.431 | glycan array binding signal (z-score) [16]: 0.483 | glycan array binding signal (z-score) [17]: -0.546 | glycan array binding signal (z-score) [18]: -0.547 | glycan array binding signal (z-score) (Fuc(a1-2)Gal(b1-4)Glc): -0.082 | glycan array binding signal (z-score) (Fuc(a1-2)Gal(b1-4)Glc6S): -0.198 | glycan array binding signal (z-score) (Fuc(a1-2)Gal(b1-4)GlcNAc): -0.088 | glycan array binding signal (z-score) [19]: 0.082 | glycan array binding signal (z-score) [20]: -0.089 | glycan array binding signal (z-score) [21]: -0.328 | glycan array binding signal (z-score) [22]: 0.179 | glycan array binding signal (z-score) [23]: -0.184 | glycan array binding signal (z-score) [24]: 0.218 | glycan array binding signal (z-score) [25]: -0.049 | glycan array binding signal (z-score) [26]: 0.212 | glycan array binding signal (z-score) [27]: -0.242 | glycan array binding signal (z-score) [28]: 0.017 | glycan array binding signal (z-score) [29]: 0.319 | glycan array binding signal (z-score) [30]: 0.15 | glycan array binding signal (z-score) [31]: -0.295 | glycan array binding signal (z-score) [32]: 0.132 | glycan array binding signal (z-score) [33]: 0.092 | glycan array binding signal (z-score) [34]: -0.34 | glycan array binding signal (z-score) [35]: -0.13 | glycan array binding signal (z-score) [36]: 0.451 | glycan array binding signal (z-score) [37]: -0.499 | glycan array binding signal (z-score) [38]: -0.121 | glycan array binding signal (z-score) [39]: -0.091
